Measurements from the supplement of paper PMC10986608.
The other results are listed elsewhere or left out. Many values rest on one well or one pass, so single values are uncertain.

System: Candida albicans DPL-15
Test: growth (OD600) after compound treatment (apparently relative to screen median) (relative growth (fraction; screen median 1.02)); DPL-15 is a caspofungin-resistant clinical isolate; higher = more fungal growth (less antifungal activity)
Settings: 25 µM; RPMI 1640; 48 h; 30 °C

| SMILES | growth |
| --- | --- |
| O=C(c1ccccc1)N1CCc2c(cc(-c3ccccc3)c(-c3ccccc3)[n+]2[O-])C1 | 1.09 |
| CCc1cc2c(nc1CC)CCCN2S(=O)(=O)c1ccc(OC)cc1 | 0.904 |
| CC(C)C1=NCC(C)(C)NC2=C1C(c1ccc3c(c1)OCO3)N(c1ccccc1)C2=O (stereo unspecified) | 1.06 |
| COc1ccc([C@@H]2[C@@H](C(=O)Nc3ccccc3)[C@@H](C(=O)Nc3ccccc3)[C@@H]2c2ccc(OC)c(OC)c2)cc1OC | 1.01 |
| COC[C@@H]1Cc2cc(OC)c(OC)cc2[C@H](c2ccc3c(c2)OCO3)[C@H]1COC | 1.15 |
| COc1ccc(N2C(=O)c3[nH]nc(CC(C)C)c3C2c2ccc(F)cc2)c(OC)c1 (stereo unspecified) | 1.15 |
| COC[C@@H](O)[C@H]1OCc2cc(OC)ccc2[C@@H]1/C=C/c1ccccc1 | 1.09 |
| COC(=O)[C@H]1[C@@H](O)[C@@]2(O)c3c(OC)cc(OS(=O)(=O)c4ccc(C)cc4)cc3O[C@@]2(c2ccc(Br)cc2)[C@@H]1c1ccccc1 | 1.11 |
| COc1ccc(OC[C@@H]2C=C(C)C[C@]3(O2)C(=O)Nc2ccc(OC)cc23)cc1 | 0.868 |
| COC(=O)C/C=C/[C@H](C)[C@@H](NC(=O)[C@@H](C)NC(=O)OC(C)(C)C)c1ccccc1 | 1.08 |
| CCc1ccccc1-n1nc2c(c1CC(C)C)C(c1ccc(C)cc1)NC2=O (stereo unspecified) | 0.839 |
| Cc1ccc(S(=O)(=O)N/N=C/c2cccc(C(=O)NCC3(CC(=O)NCCCC#CCO)CCCCC3)c2)cc1 | 1.07 |
| COC(=O)CC#C[C@H](C)[C@@H](NS(C)(=O)=O)C(C)(C)COCc1ccccc1 | 1.03 |
| CC1=NCC(C)(C)NC2=C1C(c1ccccc1)NC2=O (stereo unspecified) | 0.892 |
| COc1cc(OC)c2c(OC)c3c(=O)cc(C)oc3cc2c1OC | 0.999 |
| CCN(CC)C(=O)c1c(O)cc(O)cc1CC(=O)C1CCCCC1 | 1.12 |
| Cc1ccc(C2NC(=O)c3nn(Cc4ccccc4)c(-c4ccccc4)c32)cc1 (stereo unspecified) | 0.884 |
| CO[C@@H]1[C@H](O)CC[C@]2(O)CN(C3CCCC3)[C@@H](CC=C(C)C)[C@](C)(O)[C@@H]12 | 1.09 |
| COc1ccc(N2C(=O)c3[nH]nc(CC(C)C)c3C2c2cccc(C(F)(F)F)c2)cc1F (stereo unspecified) | 1.06 |
| COC(=O)C1=C(C)N(Cc2ccc(C(F)(F)F)cc2)C(=S)NC1c1cccc(Br)c1 (stereo unspecified) | 0.902 |
| CS(=O)(=O)Oc1c(CC23CCCCC2=Nc2c(F)cccc23)occc1=O (stereo unspecified) | 1.02 |
| COC(=O)C1=C(C)N(CCCOC(C)C)C(=S)NC1c1ccc(OC)cc1 (stereo unspecified) | 1.02 |
| COc1ccc2c(c1)[C@@H](NCCCOc1ccccc1)[C@H](C)[C@H]2c1ccccc1 | 0.94 |
| FC(F)(F)Oc1ccc2[nH]c3c(c2c1)CCCC3 | 1.09 |
| COc1ccc(C2NC(=S)N(C(C)C)C(C)=C2C(C)=O)cc1 (stereo unspecified) | 1.02 |
| COc1cccc(C#C[C@@H]2C=C[C@@H](OC(C)=O)[C@@H](COC(C)=O)O2)c1 | 0.948 |

| SMILES | growth |
| --- | --- |
| CO[C@@H]1[C@H](O)CC[C@]2(O)CN(c3ccc(NC(C)=O)cc3)[C@@H](CC=C(C)C)[C@](C)(O)[C@@H]12 | 0.911 |
| COC(=O)C1=C(C)[C@]2(C)C[C@H]3[C@@]4(C)CC[C@H](O)C(C)(C)[C@@H]4CC[C@@]3(C)OC2=C(C)C1=O | 1.01 |
| COc1cc(CC=C(C)C)c2c(=O)c3c(F)cccc3oc2c1O | 0.935 |
| COc1ccc(N2C(=O)C3=C(C(C)=NCCN3)C2c2ccccc2)cc1 (stereo unspecified) | 0.966 |
| COc1ccc(-n2cc3c(n2)-c2cccc(c2)C(=O)N2C[C@H](O)C[C@H]2C(=O)NCC(C)(C)C3)cc1 | 1.2 |
| CC(C)c1c2c(nn1-c1ccc(OC(F)(F)F)cc1)C(=O)NC2c1ccccc1 (stereo unspecified) | 0.938 |
| CC(=O)C1=C(C)N(Cc2cccc(C(F)(F)F)c2)C(=S)NC1c1cccc(Cl)c1 (stereo unspecified) | 1.02 |
| COC(=O)C1=C(C)N(Cc2ccccc2)C(NCC(C)C)=NC1c1cccc(F)c1 (stereo unspecified) | 1.01 |
| CS(=O)(=O)Oc1c(CC23CCCCC2=Nc2ccc(F)cc23)occc1=O (stereo unspecified) | 1.32 |
| COC(=O)c1cc2c(c3c4cc(F)ccc4n(S(=O)(=O)c4ccc(OC)cc4)c13)C(=O)N(Cc1cccc(F)c1)C2 | 0.952 |
| CC(C)C1=NCCNC2=C1C(c1ccc(Br)cc1)N(c1ccccc1)C2=O (stereo unspecified) | 1.03 |
| CO[C@H]1CC[C@H](N2C(=O)c3[nH]nc(CC(C)C)c3C2c2ccc(F)cc2)CC1 (stereo partly specified) | 0.961 |
| CC(C)CC1=NCCNC2=C1C(c1ccccc1)N(Cc1ccccc1)C2=O (stereo unspecified) | 1.03 |
| COC(=O)C1=C(C)N(Cc2ccc(Br)cc2)C(=S)NC1c1cccc(OC)c1 (stereo unspecified) | 0.885 |
| CC1=C[C@H]2c3c(c(O)c(O)c4oc5c(C)cccc5c(=O)c34)[C@H](c3cc(O)c(O)c4oc5c(C)cccc5c(=O)c34)[C@H]2C(C)(C)C1 | 0.358 |
| CCOc1ccc(N2C(=O)c3[nH]nc(CC(C)C)c3C2c2ccc(F)cc2)cc1 (stereo unspecified) | 1.02 |
| COc1ccc(Cn2nc(C3CCCC3)cc2Nc2cc(O)cc(O)c2C(=O)N2Cc3cn[nH]c3C2)cc1 | 0.981 |
| O=C1C2=C(O)CC[C@@H](O)[C@]2(C(=O)O)Oc2cccc(O)c21 | 1.9 |
| Cc1noc(C)c1S(=O)(=O)N1CCCc2nc(-c3ccc(F)cc3)ccc21 | 0.863 |
| COc1cc(O)c2c(=O)c3c([C@H]4c5c(OC)c(O)c6oc7cc(OC)cc(O)c7c(=O)c6c5[C@@H]5C=C(C)CC(C)(C)[C@H]45)cc(OC)c(O)c3oc2c1 | 0.824 |
| Cn1nc(-c2ccc(C(C)(C)C)cc2)cc1N | 1.14 |
| CC1=C(C)C[C@H]2[C@@H](C1)C(C(C)C)=CC(=O)[C@@]2(C)O | 0.853 |
| COc1ccc(N2[C@@H](c3cn(C)c4ccccc34)[C@@]3(O)CC[C@@H](O)[C@@H](OC)[C@@H]3[C@@]2(C)[C@H](O)CC=C(C)C)cc1 | 0.94 |
| C=CCN1C(=O)c2[nH]nc(C)c2C1c1cccc(C(F)(F)F)c1 (stereo unspecified) | 0.832 |
| COC(=O)[C@]1(CC(C)C)NC=C(C(=O)c2ccccc2)[C@@H]1c1cccc(C(F)(F)F)c1 | 0.965 |
| CC1(C)CNC(=O)CC2(CCN(C(=O)OC(C)(C)C)CC2)CNC(=O)c2cccc(c2)-c2cc(n[nH]2)C1 | 1.2 |

| SMILES | growth |
| --- | --- |
| COC(=O)[C@@H]1[C@@H](c2ccccc2)[C@]2(c3ccc(OC)cc3)Oc3cc(OC)cc(OC)c3[C@@]23NC(Cc2ccccc2)=N[C@@]13O | 1.03 |
| CC(C)c1nn(C)c2c1C(c1cccc(C(F)(F)F)c1)NC2=O (stereo unspecified) | 1.19 |
| CC/C=C\CCC(OC(=O)c1ccc(Br)cc1)C1=CCCCC1=O (stereo unspecified) | 1.18 |
| COc1ccc(CO/N=C2/CCCC/C=C\CCCCOC(=O)c3c(O)cc(O)cc3C2)cc1 | 1.12 |
| CC(C)Cc1c2c(nn1C)C(=O)N(Cc1ccccc1)C2c1ccc(F)cc1 (stereo unspecified) | 0.986 |
| CCCC1=Nc2ccccc2C1(CC)Cc1occc(=O)c1O (stereo unspecified) | 1.03 |
| CC(C)c1c2c(nn1C)C(=O)NC2c1ccc(Br)cc1 (stereo unspecified) | 1.09 |
| C=CCOc1c(-c2ccc(O)cc2O)oc2cc(O)cc(OCC=C)c2c1=O | 1.12 |
| Nc1cccc(F)c1C(=O)OCC(=O)c1ccc(N2CCOCC2)cc1 | 0.945 |
| CCOC(=O)c1c(S(=O)(=O)Nc2ccccc2OC)c(C)n(C)c1C | 1.1 |
| C#CCC(C)(C)CNC(=O)CC1(CNC(=O)c2cccc(/C=N/NS(=O)(=O)c3ccc(C)cc3)c2)CCN(C(=O)OC(C)(C)C)CC1 | 1.17 |
| COC(=O)c1ccc(N2C(=O)c3[nH]nc(CC(C)C)c3C2c2cccc(C(F)(F)F)c2)cc1 (stereo unspecified) | 1.01 |
| CNC(=O)[C@@H]1C[C@@]2(c3cn(C(=O)OCc4ccccc4)c4ccccc34)c3ccccc3N(C(=O)OCc3ccccc3)[C@H]2N1C(=O)OC(C)(C)C | 1.14 |
| COC(=O)C1=C(C)N(Cc2ccc(Br)cc2)C(=S)NC1c1cccc(Br)c1 (stereo unspecified) | 0.924 |
| CC(C)CCOS(=O)(=O)NC(C)(C)C | 0.939 |
| C[C@H]1C[C@H]2[C@H](Cc3ccccc3)C(=O)N[C@@H](Cc3ccccc3)C(=O)N2[C@H]1c1cccc(Br)c1 | 0.973 |
| Cc1ccc2c(c1)[C@]1(Cc3occc(=O)c3OS(C)(=O)=O)CCCCC1=N2 | 1.23 |
| COc1cc(OC)c2c(=O)c3cccc(O)c3oc2c1 | 0.791 |
| COC(=O)c1nnc(C(C)=O)c2ccccc12 | 1.12 |
| C/C=C/C=C/C(=O)c1cc(C)c(CCC(=O)OC)c(C)c1O | 0.932 |
| COc1cc([C@@H]2[C@@H](C(=O)NCC3CC3)[C@H](C(=O)NCC3CC3)[C@H]2c2ccc(O)c(OC)c2)ccc1O | 1.02 |
| CC[C@H](C)C(NC(=O)O[C@H]1C(=O)c2cc(OC)ccc2O[C@@H]1c1ccc(OC)c(Br)c1)C(=O)OC (stereo partly specified) | 0.828 |
| CC(=O)C1=C2C=C([Si](C)(C)C)CCN2C(=O)NC1c1ccccc1 (stereo unspecified) | 1.13 |
| CCCCCOS(=O)(=O)NC(C)(C)c1ccccc1 | 1.15 |
